Test results as given in a compilation of properties of binary mixtures (doi:10.1007/s10765-020-02720-w).
Some of these densities may be calculated back from excess volumes.

Assay: xn = mol fraction of the nth substance listed
Settings: 100 kPa

C[n+]1ccn(CCC(F)(F)C(F)(F)F)c1.F[P-](F)(F)(F)(F)F + CCCC[n+]1ccn(C)c1.F[P-](F)(F)(F)(F)F
mass density [kg/m3]
Settings	x2 = 0	x2 = 0.972
293.15 K	–	1379.3
298.15 K	–	1375.1
303.15 K	–	1370.9
308.15 K	–	1366.7
318.15 K	–	1358.3
323.15 K	–	1354.1
328.15 K	–	1350
333.15 K	–	1345.8
343.15 K	1595.4	1337.6
345.65 K	1592.9	–
348.15 K	1590.4	–
350.65 K	1587.9	–
353.15 K	1585.6	1329.5
355.65 K	1583.1	–
358.15 K	1580.8	–
360.65 K	1578.5	–
363.15 K	1576.2	1321.4

CCCC[n+]1ccn(C)c1.F[P-](F)(F)(F)(F)F + C[n+]1ccn(CCC(F)(F)C(F)(F)F)c1.F[P-](F)(F)(F)(F)F
x1 = 1
Settings	mass density [kg/m3]
293.15 K	1371.6
298.15 K	1367.4
303.15 K	1363.2
308.15 K	1359
313.15 K	1354.8
318.15 K	1350.7
323.15 K	1346.5
343.15 K	1330.2
353.15 K	1322.1
358.15 K	1318.1
363.15 K	1314.1
